Results on 36 sequences are retold here after publication PMC6451091.

Conditions in all cases: 20 mM HEPES pH 7.9, 100 mM NaCl, 1 mM DTT, 0.2 mg/mL BSA, 0.02% Triton X-100, 2% milk, 0.4 mg/mL salmon testes DNA; 1 h; temperature not stated; high values mean tight binding; double strand, one strand shown; sequences stand for … in GCCTAGCAC…GTGCTAGGTCTTGATTCGCTTGACGCTGCTG
For one assay, the target named is PU.1 (IVT) (UniProt P17947). The assay is described as follows: protein-binding microarray (PBM).
The target in assay [1] is PU.1 (endogenous, THP-1 nuclear extract) (UniProt P17947). Description: nuclear extract protein-binding microarray (nextPBM).
Assay [2] addresses T1, FLI1 (endogenous, THP-1 nuclear extract) (UniProt Q01543).
T1 sequence: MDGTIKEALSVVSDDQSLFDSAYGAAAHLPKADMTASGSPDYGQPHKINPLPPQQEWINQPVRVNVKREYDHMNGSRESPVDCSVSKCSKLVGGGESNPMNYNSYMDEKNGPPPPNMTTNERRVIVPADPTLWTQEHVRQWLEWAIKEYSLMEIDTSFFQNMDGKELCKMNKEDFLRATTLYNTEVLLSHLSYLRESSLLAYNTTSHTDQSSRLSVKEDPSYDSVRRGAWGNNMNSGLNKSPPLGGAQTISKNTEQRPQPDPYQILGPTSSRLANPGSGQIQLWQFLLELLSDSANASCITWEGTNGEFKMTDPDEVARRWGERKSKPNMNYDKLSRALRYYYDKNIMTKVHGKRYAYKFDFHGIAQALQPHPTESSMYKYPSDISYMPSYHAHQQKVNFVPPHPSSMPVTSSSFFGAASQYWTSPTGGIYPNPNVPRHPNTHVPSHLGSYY
Described as above.

Assay [3] deals with PU.1 (endogenous, THP-1 nuclear extract) + IRF8 (endogenous, THP-1 nuclear extract). The assay is described as above.

This is one part of the list. For part of these data: At the low end of the ranking the order means little. For part of these data: The protein was read in a cell extract, so binding may be indirect.

With ATCCAGCAAGAGAATAAAAT, the binding signal was 0.0846 z-score with PU.1 (IVT), -0.266 z-score in assay [1], 0.24 z-score in assay [2] and -0.862 z-score in assay [3].
For CGGCCGCGAAGCAGAGCGGG, in that order: -0.727 z-score, 0.198 z-score, 0.439 z-score and 1.53 z-score.
For CTTCCTCAGCGACCATGGCC, in that order: 1.02 z-score, 1.16 z-score, 0.299 z-score and 0.837 z-score.
On the same counts, the results for CCTCTCTGACACCTCAAAAT are 0.121 z-score, -0.635 z-score, -0.365 z-score and -0.277 z-score.
Regarding GCAATGAGCCACGTGAACCT, the binding signal is -0.73 z-score with PU.1 (IVT), -0.336 z-score in assay [1], -0.607 z-score in assay [2] and 0.512 z-score in assay [3].
On the same counts, the results for CCTGACTTTGTGGATGCTGT are -0.312 z-score, -0.299 z-score, 0.0992 z-score and -0.43 z-score.
Regarding TTGAAAAAAAAAAAGAAGCT, the binding signal in the assay with PU.1 (IVT) is 1.88 z-score; in assay [1], 0.627 z-score; in assay [2], -0.0215 z-score; in assay [3], -1.5 z-score.
On the same counts, the results for TTGAGATGTGAGTTGGATTC are -0.394 z-score, -0.364 z-score, -0.76 z-score and 0.177 z-score.
For CACAACCCTCAGCAAATCTT, in that order: -0.717 z-score, -0.42 z-score, -0.472 z-score and -0.836 z-score.
On the same counts, the results for GTGATTTGAGCAAGAAATAA are -0.144 z-score, -0.565 z-score, -0.057 z-score and -1.55 z-score.
For the sequence AAGGTGACTGCCTGAAACTT, the binding signal is -0.442 z-score with PU.1 (IVT), -0.433 z-score in assay [1], -0.343 z-score in assay [2] and 2.01 z-score in assay [3].
For TTAGAAGGAAAAAGAGAGTG, in that order: -0.482 z-score, -0.289 z-score, 0.403 z-score and 0.532 z-score.
Take CAGGTATTCGTGACTAGTCC: the binding signal with PU.1 (IVT) is -0.796 z-score; in assay [1], -0.262 z-score; in assay [2], -0.802 z-score; in assay [3] it was -1.05 z-score.
For AAGAAAGCTGCCTGAAAGTA, the binding signal is -0.576 z-score with PU.1 (IVT), -0.566 z-score in assay [1], -0.154 z-score in assay [2] and 1.05 z-score in assay [3].
Regarding AAACAGAGACTTCACAAAAT, the binding signal with PU.1 (IVT) was 0.0327 z-score; in assay [1] it was 0.143 z-score; in assay [2], -0.253 z-score; in assay [3], 0.461 z-score.
For AGGGAGCAGCCTCCTGACTT, in that order: -0.744 z-score, -0.267 z-score, -1.06 z-score and 0.806 z-score.
For the sequence ACGTATGGAAAAACACAGAT, the binding signal was -0.0282 z-score with PU.1 (IVT), -0.216 z-score in assay [1], -0.285 z-score in assay [2] and 0.836 z-score in assay [3].
For ACTTCCCGTCCCCAGACTGG, the binding signal came to 3.7 z-score in the assay with PU.1 (IVT), 3.78 z-score in assay [1], 3.14 z-score in assay [2] and 0.729 z-score in assay [3].
As to CAAAGATCTTTGTTATTCAT, the binding signal is -0.209 z-score with PU.1 (IVT), -0.587 z-score in assay [1], 0.125 z-score in assay [2] and -0.811 z-score in assay [3].
As for GATTGGCCATGCTGACGCTG, the binding signal with PU.1 (IVT) is -1.02 z-score; in assay [1], -0.445 z-score; in assay [2], -1.02 z-score; in assay [3], -0.514 z-score.
AAATTTGCTACAAGGAACGT: the binding signal is 0.659 z-score with PU.1 (IVT), 0.472 z-score in assay [1], 0.134 z-score in assay [2] and -0.439 z-score in assay [3].
In the case of TGATTTGGAGACTAAGGCGC, the binding signal with PU.1 (IVT) is -0.0204 z-score; in assay [1], -0.483 z-score; in assay [2] it was -0.54 z-score; in assay [3] it was -0.783 z-score.
On the same counts, the results for AGGCAGTGAGCTAAGATTGC are -0.465 z-score, -0.683 z-score, -0.383 z-score and 0.118 z-score.
Take CCCCCAAACAGATGAGTAAG: the binding signal was -0.274 z-score in the assay with PU.1 (IVT), -0.271 z-score in assay [1], 0.712 z-score in assay [2] and -0.852 z-score in assay [3].
For GAATTACCTCATCTTAAAAC, in that order: 0.168 z-score, 0.23 z-score, -0.532 z-score and -0.661 z-score.
In the case of TGTCACAGCTTGGAAACTAG, the binding signal with PU.1 (IVT) is -0.278 z-score; in assay [1], -0.309 z-score; in assay [2] it was 0.0766 z-score; in assay [3], 0.169 z-score.
For CAGTTAGGACTCAGTTATTT, in that order: -0.555 z-score, -0.158 z-score, -0.511 z-score and -1.14 z-score.
For CAACAATGTTCACAGCATCT, in that order: -0.303 z-score, -0.441 z-score, -0.733 z-score and -0.294 z-score.
For AATTGTTATATTTTCTTGGT, in that order: 0.0158 z-score, -0.379 z-score, 0.217 z-score and -0.501 z-score.
For the sequence AATCTTCAGTGTTGGAGCCA, the binding signal with PU.1 (IVT) is -0.0894 z-score; in assay [1] it was -0.376 z-score; in assay [2], -1.03 z-score; in assay [3] it was -1.02 z-score.
On the same counts, the results for AAGTGGCATATTTAAAAATC are -0.398 z-score, -0.346 z-score, -0.525 z-score and 0.627 z-score.
On the same counts, the results for ATTAGGAAGTGCTTTTGGGA are 2.18 z-score, 1.97 z-score, 1.64 z-score and -1.69 z-score.
Turning to CTGAGGAAAGTGGCTTGGGT, the binding signal was -0.318 z-score with PU.1 (IVT), -0.275 z-score in assay [1], 0.204 z-score in assay [2] and 1.44 z-score in assay [3].
On the same counts, the results for CCTTTGTGGGAAGTCCCAGG are 1.49 z-score, 1.62 z-score, 0.948 z-score and -1.79 z-score.
On the same counts, the results for TTCCTGGCCGGCAAATGACT are 2.26 z-score, 2.67 z-score, 4.34 z-score and -0.829 z-score.
On the same counts, the results for TGCAGGGTGGGAAGATGGCT are 0.0611 z-score, -0.0327 z-score, 0.225 z-score and -0.349 z-score.
